For one molecule, Kd, koff and kon results are on record in patent EP4703382A1 (Kanglitai Biomedical (Qingdao) Co., Ltd., dated 2026).

Holding throughout (test): BLI (ForteBIO Octet QKe), PDL1-Fc loaded, analyte 100 nM
The target of one test is T1, Fusion 1 (murine, UniProt P43431; P43432).
T1 construct: PDL1-1 nanobody fused with murine IL-12; two plasmids co-transfected 1:1; also called mP35-P1-8his + mP40

Another test has as its target T2, Fusion 2 (murine, UniProt P43431; P43432).
T2 construct: PDL1-1 nanobody fused with murine IL-12; two plasmids co-transfected 1:1; also called mP35-6his + mP40-P1

A further test concerns the target T3, Fusion 3 (murine, UniProt P43431; P43432).
T3 construct: PDL1-1 nanobody fused with murine IL-12; two plasmids co-transfected 1:1; also called P1-mP35-8his + mP40

In the next test the target is T4, Fusion 4 (murine, UniProt P43431; P43432).
T4 construct: PDL1-1 nanobody fused with murine IL-12; two plasmids co-transfected 1:1; also called mP35-6his + P1-mP40

The target in another test is T5, Fusion 5 (murine, UniProt P43431; P43432).
T5 construct: two PDL1-1 nanobodies fused with murine IL-12; also called P1-mP35-P1-8his + mP40

The next test concerns the target T6, Fusion 8 (murine, UniProt P43431; P43432).
T6 construct: two PDL1-1 nanobodies fused with murine IL-12; also called mP35-P1-8his + P1-mP40

The target of a further test is T7, Fusion 9 (murine, UniProt P43431; P43432).
T7 construct: two PDL1-1 nanobodies fused with murine IL-12; also called P1-mP35-8his + P1-mP40

B1: human PDL1-Fc fusion protein (Fc fusion)
chain: not shown
notes: also called human PDL1-Fc recombinant protein
Take B1: the dissociation constant Kd with Fusion 1 was 13.5 nM; with Fusion 2, 11.5 nM; with Fusion 3, 4.05 nM; with Fusion 4, 7.4 nM; with Fusion 5, 0.239 nM; in the test with Fusion 8 it was 0.158 nM. Besides, the Kd with Fusion 9 stood at 0.0589 nM. Besides, the koff with Fusion 1 is 0.00646 s⁻¹; with Fusion 2, 0.00735 s⁻¹; in the test with Fusion 3, 0.00375 s⁻¹; with Fusion 4, 0.00478 s⁻¹; with Fusion 5 it was 0.000151 s⁻¹; in the test with Fusion 8 it was 0.000146 s⁻¹. Further, the koff in the test with Fusion 9 turned out to be 5.71e-05 s⁻¹. The kon with Fusion 1 is 477000 M⁻¹ s⁻¹; in the test with Fusion 2, 639000 M⁻¹ s⁻¹; in the test with Fusion 3, 924000 M⁻¹ s⁻¹; with Fusion 4 it was 647000 M⁻¹ s⁻¹; with Fusion 5, 631000 M⁻¹ s⁻¹; with Fusion 8, 925000 M⁻¹ s⁻¹. In addition, in the test with Fusion 9, the kon is 969000 M⁻¹ s⁻¹.

In general, Kd refers to a measure of binding affinity in units of concentration. For orientation: koff means the first-order rate constant of dissociation. Low values mean a long-lived complex, high ones a short-lived complex. One may read the kon as a measure of how fast the partners come together.
